From PubChem BioAssay AID1346428 (National Center for Advancing Translational Sciences (NCATS), 2018)
Screen size: about 48,000 compounds; about 1,200 (2.5%) were called active. About 2% were inconclusive and are not listed.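 How the source made its calls: active means activation of at least 60% and not above a set upper limit (about 1 call in 100 departs from these limits); inconclusive means activation of 40% to 60%, or above that upper limit; inactive means activation under 40%.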 This is one part of the list.

target: Probable G-protein coupled receptor 32 (Homo sapiens) (UniProt O75388); assay: qHTS for Agonists of Human Resolvin D1 Receptor DRV1; settings: CHO-K1 GPR32 beta-arrestin PathHunter luminescence, 90 min; at 76.9 µM; stronger effect = higher value; zero percent set by DMSO-only wells
Procedure, shortened: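 PathHunter enzyme-fragment complementation, CHO-K1 GPR32 stable line; 2,500 cells/well, overnight attach; cpd 90 min 37 °C 5% CO2; detection reagent 1 h RT; chemiluminescence. DMSO = EC0.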

Chain of UniProt O75388 (O75388 whole entry, looked up, the tested form may be a part): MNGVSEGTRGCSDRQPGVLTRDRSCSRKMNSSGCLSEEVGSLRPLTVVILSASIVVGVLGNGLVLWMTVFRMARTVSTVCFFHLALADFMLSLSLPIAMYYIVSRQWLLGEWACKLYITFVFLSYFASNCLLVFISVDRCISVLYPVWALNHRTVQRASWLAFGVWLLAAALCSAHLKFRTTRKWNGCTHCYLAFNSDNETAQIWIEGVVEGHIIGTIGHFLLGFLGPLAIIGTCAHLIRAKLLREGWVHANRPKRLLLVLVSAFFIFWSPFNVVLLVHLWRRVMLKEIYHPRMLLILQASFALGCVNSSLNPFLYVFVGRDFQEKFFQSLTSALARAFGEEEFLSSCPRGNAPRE

activation, inactive:
O=C(Nc1ccc(N2CCOCC2)c(C(=O)O)c1)c1ccc(Br)cc1 -8.06%, Cc1ccc(CNC(=O)Cn2ccn(-c3ccc(F)cc3)c(=O)c2=O)cc1 1.26%, CC(NC(=O)CSc1nc(-c2ccccc2F)nc2cc(=O)[nH]n12)c1nc2ccccc2n1C (configuration not stated) -62.7%, Cc1ccc(NC(=O)c2c(C)nn(-c3ccccc3)c2-n2cccc2)c(Cl)c1 0.748%, CCc1cccc(CC)c1NC(=O)Cn1nnc2sc3c(c2c1=O)CCCC3 -0.0697%, Cc1ccc(Cc2nc3ccccc3nc2SCC(=O)NCc2ccccc2Cl)cc1 -12.3%, CCOC(=O)c1c(NC(=O)COc2ccc(C(C)(C)C)cc2)sc2c1CCCC2 20.3%, O=C1CC(c2ccc(F)cc2F)c2cc3c(cc2N1)OCO3 (configuration not stated) 23.7%, COc1ccc(C(=O)N(c2ccc(C)cc2)S(=O)(=O)c2ccc(C)cc2)cc1 -19.9%, COc1ccc(Cl)cc1NC(=O)C1CCN(S(=O)(=O)c2ccc(F)cc2)CC1 24%, COc1ccc(OC)c(NC(=O)Cn2c(=O)n(-c3ccc(Cl)cc3)c(=O)c3c(C)c(C)sc32)c1 -1.82%, Cc1ccc(N2C(=O)CS(=O)(=O)C23C(=O)N(Cc2ccc(Cl)cc2)c2ccccc23)cc1C (configuration not stated) -3.94%, COCCn1c(SCC(=O)c2ccc(F)cc2)nc2cc(C(=O)NC3CCCC3)ccc2c1=O -31.9%, Cc1ccc(N2C(=O)CCSC23C(=O)N(Cc2ccc(F)cc2)c2ccccc23)cc1 (configuration not stated) -23.8%, CCOc1cccc(C(=O)N(Cc2ccc(F)cc2)Cc2ccco2)c1 -33.2%, CC1CCN(C(=O)CSc2nnc(NC(=O)Nc3ccccc3)s2)CC1 14.3%, CCOC(=O)C1CCN(C(=O)Cn2ncc3c4ccccc4n(Cc4ccccc4)c3c2=O)CC1 -26.2%, Cc1cccc(CC(=O)Nc2c(C(=O)Nc3cccc(F)c3)oc3ccccc23)c1 -1.78%, COC(=O)c1ccccc1NC(=O)Cn1c(CCC(=O)O)ccc1-c1ccc(C)cc1 1.62%, Cc1ccc2c(c1)N(C(=O)CCC(=O)NCc1cccs1)CC(C)O2 (configuration not stated) -18.9%, CS(=O)(=O)c1ncc(Cl)c(C(=O)Nc2c(C(=O)c3ccc(Cl)cc3)oc3ccccc23)n1 -1.56%, COc1cccc(-c2nc3c(C#N)c[nH]n3c2NC2CCC(C)CC2)c1 (configuration not stated) -28.8%, COc1ccc(CCNC(=O)c2ccc(Cn3c(SCC(=O)NCCC(C)C)nc4cc5c(cc4c3=O)OCO5)cc2)cc1OC -15.6%, Cc1ccc(NC(=O)CCSc2nc(-c3ccc4c(c3)OCO4)cc(C(F)(F)F)n2)c(C)c1 -3.73%, CCOc1ccccc1C(=O)NCc1ccc2c(c1)CCN2C(=O)c1ccccc1 -30.5%, Cc1cc(C)c2oc(-c3cccc(NC(=O)COc4ccccc4Cl)c3C)nc2c1 -1.91%, Cc1cccc(Nc2nc3c(S(=O)(=O)c4ccc(Br)cc4)nnn3c3ccsc23)c1C -2.5%, Cc1cc(NC(=O)CSc2ncc(C(=O)Nc3ccc(C)c(C)c3)c(=O)n2C)no1 -10.5%, CC1=C(C(=O)Nc2cccnc2)C(c2ccccc2Cl)n2nc(-c3ccccc3)nc2N1 (configuration not stated) -12.9%, CC(=O)c1c(C)n(-c2ccc(C)cc2)c2ccc(OC(=O)COc3ccccc3)cc12 -7.24%, O=C(Nc1ccc2oc(-c3ccc4ccccc4c3)nc2c1)c1cc(Cl)ccc1Cl -18.9%, Cc1ccc2nc(CN3CCN(S(=O)(=O)c4ccc(C)c(C)c4)CC3)oc2c1 5.74%, COc1cc(-c2ccno2)ccc1S(=O)(=O)N1CCN(c2ccccc2)CC1 -3.86%, CC(C)C(=O)Nc1nnc(SCc2cc(=O)n3ccccc3n2)s1 -2.72%, CN(C)c1ccc(CNC(=O)C2CCN(S(=O)(=O)c3ccc4[nH]c(=O)ccc4c3)CC2)cc1 3.94%, Cc1ccc(-n2c(=O)c3c(cnn3C)n(CC(=O)Nc3cccc(C)c3)c2=O)cc1 -5.03%, Cn1c(=O)n(C)c2cc(N3CCOCC3)c(NS(=O)(=O)c3ccc(Cl)cc3)cc21 -10%, CCOC(=O)C1CCN(C(=O)CSc2n[nH]c(-c3ccc(OC)cc3)n2)CC1 -7.58%, Cc1cc(=O)n(Cc2c(F)cccc2Cl)c2c1c(C)nn2C -21.1%, CCOC(=O)Cn1c(CN2CCN(c3ccc(OC)cc3)CC2)nc2c1c(=O)[nH]c(=O)n2C -14.4%, COc1ccc(CCNC(=O)Cn2c(-c3ccc(F)cc3)cc(C(C)=O)c2C)cc1OC -20.9%, COc1ccc2c(c1)CC(C(=O)NCCc1ccc(S(N)(=O)=O)cc1)CO2 (configuration not stated) -14.2%, Cc1ccc(C)c(OC(=O)CSc2nnc(-c3cccs3)o2)c1 -20.5%, CCCC(=O)Nc1cc(-c2nnc3c4ccccc4c(C)nn23)ccc1C 1.93%, COc1cc2ccccc2cc1C(=O)N1CCN(c2nc3c(F)cc(F)cc3s2)CC1 8.86%, COc1ccc(-n2c(=O)c3c(c4cc(OC)ccc4n3C)n(CC(=O)N3CCCC3)c2=O)cc1 -2.81%, COc1ccc(N2CCN(CCCNC(=O)c3ccc4nc(Cc5ccccc5)oc4c3)CC2)cc1 11.9%, Cc1ccc(NC(=O)C(C)Sc2nc3c(c(=O)[nH]2)CCCC3)cc1Cl (configuration not stated) 24.6%, CSc1cccc(NC(=O)CN2C(=O)CCc3cc(S(=O)(=O)N4CCCCC4)ccc32)c1 -19.9%, Cc1cc(C)cc(NC(=O)c2cccc(C(=O)Nc3cc(C)cc(C)c3)c2)c1 -1.04%, CCc1ccc(NC(=O)CCCc2nnc3n(CCCOC)c(=O)c4sccc4n23)cc1 -13.1%, CCOc1ccccc1NC(=O)CSc1ccc2nc(-c3ccccc3)cn2n1 -2.84%
